# Laboratory results as given in the RNAGym collection of RNA variant scans (doi:10.1093/nar/gkz1192).
# Read counts are not given, so values of variants with three or more changes are uncertain.
# B1: CPEB3 Ribozyme (parent)
# chain: UAACAGGGGGCCACAGCAGAAGCGUUCACGUCGCAGCCCCUGUCAGAUUCUGGUGAAUCUGCGAAUUCUGCUGUAUAUCUC
# Variants of: B1
# Assay: self-cleavage, relative activity (ratio to wild type); higher = more cleavage; in vitro, sequencing
# Procedure, shortened: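 Relative activity compares each variant's cleaved/total read fraction with that of the unmutated ribozyme. To get these fractions, barcoded CPEB3 ribozyme libraries from rounds of error-prone PCR were transcribed with T7 RNA polymerase for 5 hours at 37°C and then given 15 min of DNase I treatment before EDTA was added. The RNAs were reverse transcribed with template switching and sequenced on Illumina, and DNA sequencing linked barcodes to variants. A minimum of 5 reads applied, and three batches were averaged.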
row,Variant,self-cleavage
1,CAACAGGGGGCCCCAGCAGACGCGUUCACGUCGCAGCCCCUGUCAGGUUCUGGUGAAUCUGCGAAUUCUGCAGUAUAUCUC [U1C A13C A21C A47G U72A],0.06
2,CAGCGGGGGGCCACAGCAGAAGCGUUCACGUCGCAGCACCCGUCAGAUUCUGGUGAAUCUGCGAAUUCUGCUGUAUAUCUC [U1C A3G A5G C38A U41C],0.09
3,CACCAGGGGGCCCCAGCAGAAGCGUUCACGUCGCAGCCCCUGUCAGAUUCUGGUGAAUCUGAGAAUUCCGUUGUAUAUCUC [U1C A3C A13C C62A U69C C71U],0.16
4,AAACAGGGGGCCACAGCAGAAGCGUUCACGUCGCAGCCCCUGUCAGAUUCUGGUGAAUCUGCGAAUUCUGCUGCAUAUCCC [U1A U74C U80C],1.23
5,CAACCGGGGGCCACAGCAGUAGCGUUCACGUCGCAACCCCUGUCAGAUUCUGGUGAAUCUGCGAAUUCUGCUGUAUAUCUC [U1C A5C A20U G36A],0.08
6,CUACAGGGGGCCGCAGCAGAAGCGUUCACGUCGUAGCCCCUGUCAGAUUCUGGUGAAUCCGCGAAUUCUGCUGUAUAUCUC [U1C A2U A13G C34U U60C],0.09
7,CAACUGGGGGCCACAGCAGGAGCGUUCACGUCGAAGCCCCUGUCAGAUUCUGGUGAAUCUGCGAAUUCUGCAGUAUAUCUC [U1C A5U A20G C34A U72A],0.06
8,CAACGGGGGGCCACAGCAGAAGCGUUCACGUCGCAGCCCCUAUCAGAUUCUGGUGAAUCUGCGAACUCUGCUGUAUAUCUC [U1C A5G G42A U66C],0.26
9,CAACGGGGGGCCGCAGCAGAAGCGUUCACGUCGCAGCCCCUGUCAGAUUCUGGUGAAUCUGCGAGUUCUGCUGUAUAUCUC [U1C A5G A13G A65G],0.49
10,CAACGGGGGCCCACAGCGGAAGCGUUCACGUCGCAGCCCCUGUCAGAUUCUGGUGAAUCCGCGAAUCCUGCUGUAUAUGUC [U1C A5G G10C A18G U60C U67C C79G],0.09
11,CAACGGGGGGCCACAGCAGACGCGUUCACGUCGCAGCCCCUGUCAGAUUCUGGUGAAUCUGCGAAUUCUGCUGUAUAUCCC [U1C A5G A21C U80C],0.04
12,CAUCAGGGGGCCACAGCAGUAGCGUUCACGACGCAGCCCCUGUCGGAUUCUGGCGAAUCUGCGAAUUCUGCUGUAUAUCUC [U1C A3U A20U U31A A45G U54C],0.06
13,CAACGGGGGGCCACAGCAGAAGCGUUCACGUCACAGCCCCUGUCAGAUUCUGGUUAAUCUGCGAAUUCUGCCGUAUAUCUU [U1C A5G G33A G55U U72C C81U],0.05
14,CGACAGGGGGCCACAGCAGAAGCGUUCACGUCGCAGCCCCUGUCAGACUCUGGUGAAUCUGCGAAUUCUGCUGUAUAUCUC [U1C A2G U48C],0.45
15,CCACAGGGGGCCACAGCAGAAGCGUUCACGUCGCAGCCCCAGUCAGACUCUGGUGAAUCUGCGAAUUCUGCAGUAUAUCUC [U1C A2C U41A U48C U72A],0.26
16,CACCAGGGGGCCACAGCUGAAGCGUCCACGUCGCAGCCCCUGUCAGAUUCUGGUGAAUCUGCGAAUUCUGCUGUAUAUCUC [U1C A3C A18U U26C],0.47
17,CAUCAGGGGGCCACAGCAGAAGCGUUCACGUCGCAGCCCCUGUCAGAUUCUGGUGAAUCUGCGAAUUCUGCCGUAUAUCUC [U1C A3U U72C],1.23

row,Variant,self-cleavage
1,CAUAAGGGGGCCACAGCAGAAGAGCUCACGUCGCAGCCCCUGUCAGAUUCUGGUGGAUCUGCGAAUUCUGCUGUAUAUCUC [U1C A3U C4A C23A U25C A56G],0.14
2,CAGCAGGGGGCCACAGCAGAAGCGUUCACGUCGAAGCCCCUGUCAGAUUCUGGUGAAUCUGCGCAUUCCGCAGUAUAUCUC [U1C A3G C34A A64C U69C U72A],0.06
3,CGACAGGGGGCCACAGCAGAAGCGUUCACGUCGCAGCCCCUGUCAGAUUCUGGUGAAUCUGCGAGUUCUGCUGUAUAUCUC [U1C A2G A65G],0.33
4,CAACGGGGGGCCACAGCAGAAGCGUUCACGUCGCAGCCCCUGUCAGAUUCUGGUGAAUCUGCGAAUUCCGCUGUAUAUCUC [U1C A5G U69C],0.18
5,CGACAGGGGGCCACAGCAGAAGCGUUCACGUCGCAGCCCCUGUUAAAUUCUGGUGAAUCUGCGAAAUCUGCCGUAUAUAUC [U1C A2G C44U G46A U66A U72C C79A],0.08
6,CAGCAGGGGGCCACAGCAGGAGCGUUCUCGUCGCAGCCUCUGUCAGAUUCUGGUGAAACUGCGAAUUCUUCUGUAUAUCUC [U1C A3G A20G A28U C39U U58A G70U],0.23
7,CAACCGUGGGCCACAGCAGAAGCGUUCACGUCGCAGCCCCUGUCAGAUUCUGGUGAAUCUGCGAAUUCUGCUGUAUAUCUC [U1C A5C G7U],0.52
8,AAACAGGGGGCCACAGCAGAAGCGUUCACGUCGCAGCCCCUGUCAGAUUCUGGUGAACCUGCGAAUUCUGCUGUAAAUCUC [U1A U58C U76A],0.78
9,CAGCAGGGGGCCACAGUAGGAGCGUUCACGUCGCAGCCUCUGCCAGAUUCUGGUGAAUCUGCGAAUCCUGCUGUAUAUCUC [U1C A3G C17U A20G C39U U43C U67C],0.08
10,CAGCAGGGGGCCACAGCAGAAGCGUUCACGUCGCAGCACCUGUCAGGUUCUGGUGAGUCUGCGAAUUCUGCUGUAUACCCC [U1C A3G C38A A47G A57G U78C U80C],0.05
11,CAGCAGUGGGCCACAGUAGAAGCGUUCACGUCGCGGCCCCUGCCAGAUUCUGGUGAAUCUGCGAAUUCUGCUGUAUAUCAC [U1C A3G G7U C17U A35G U43C U80A],0.04
12,CGACAGGGGGCCACAGCAGAAGCGCUCACGUCGCAGCCCCUGUCAGAUUCCGGUGUAUCUGCGAAUUCUGCUGUAUAUCUC [U1C A2G U25C U51C A56U],0.37
13,AAACAGGGGGCCACAGCAGAAGCGUUCACGUCGCAGCCCCUGUCAGAUUCUGGUGAACCUGCGUAUUCUGCUGUACAUCUC [U1A U58C A64U U76C],0.24
14,CAACGGGGGGCCACAGCAGAAGCGUUCACGUCGCUGCCCCUGUCAGAUUCUGGUGAAUCUGCGAAUUCUGCUGUAUAUCUC [U1C A5G A35U],0.48
15,CAUCAGGGGGCCACAGCAGGGGCGUUCACGUCGCAGCCCCUGUCAGAUUCUGGUGAAUCUGCGAAUUCUGCUGUAUAUCUC [U1C A3U A20G A21G],0.51
16,CAUCAGGGGGCCACAGCAGAAGCGUUCACGUCGCAGCCCCUGCCAGAUUCUGGUGAAUCUGCGAAUUCUGCUGUAUAUCUC [U1C A3U U43C],0.4
17,CGACAGGGGGCCACGGCAGAAGCGUUCACGUCGCAGCCCCUGUCAGAUUCUGGAGAAUCUGCGAUUUCUGCUGUAUAUCUC [U1C A2G A15G U54A A65U],0.21
